# Source: article PMC4336329 (PLoS ONE, 2015)
# Screen size: about 310,000 compounds; about 14,000 (4.5%) showed an effect of 50% or more. The effect is printed as a negative number. The list shows a part of the results.
# Molecular target: human ether-à-go-go-related gene (hERG) potassium channel (human, UniProt Q12809)
# Assay: primary screen, population patch clamp on CHO cells stably expressing hERG
# 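Further: peak tail current of the secondary pulse compared with the same well before compound.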
# Chain of human ether-à-go-go-related gene (hERG) potassium channel (Q12809 whole entry, looked up): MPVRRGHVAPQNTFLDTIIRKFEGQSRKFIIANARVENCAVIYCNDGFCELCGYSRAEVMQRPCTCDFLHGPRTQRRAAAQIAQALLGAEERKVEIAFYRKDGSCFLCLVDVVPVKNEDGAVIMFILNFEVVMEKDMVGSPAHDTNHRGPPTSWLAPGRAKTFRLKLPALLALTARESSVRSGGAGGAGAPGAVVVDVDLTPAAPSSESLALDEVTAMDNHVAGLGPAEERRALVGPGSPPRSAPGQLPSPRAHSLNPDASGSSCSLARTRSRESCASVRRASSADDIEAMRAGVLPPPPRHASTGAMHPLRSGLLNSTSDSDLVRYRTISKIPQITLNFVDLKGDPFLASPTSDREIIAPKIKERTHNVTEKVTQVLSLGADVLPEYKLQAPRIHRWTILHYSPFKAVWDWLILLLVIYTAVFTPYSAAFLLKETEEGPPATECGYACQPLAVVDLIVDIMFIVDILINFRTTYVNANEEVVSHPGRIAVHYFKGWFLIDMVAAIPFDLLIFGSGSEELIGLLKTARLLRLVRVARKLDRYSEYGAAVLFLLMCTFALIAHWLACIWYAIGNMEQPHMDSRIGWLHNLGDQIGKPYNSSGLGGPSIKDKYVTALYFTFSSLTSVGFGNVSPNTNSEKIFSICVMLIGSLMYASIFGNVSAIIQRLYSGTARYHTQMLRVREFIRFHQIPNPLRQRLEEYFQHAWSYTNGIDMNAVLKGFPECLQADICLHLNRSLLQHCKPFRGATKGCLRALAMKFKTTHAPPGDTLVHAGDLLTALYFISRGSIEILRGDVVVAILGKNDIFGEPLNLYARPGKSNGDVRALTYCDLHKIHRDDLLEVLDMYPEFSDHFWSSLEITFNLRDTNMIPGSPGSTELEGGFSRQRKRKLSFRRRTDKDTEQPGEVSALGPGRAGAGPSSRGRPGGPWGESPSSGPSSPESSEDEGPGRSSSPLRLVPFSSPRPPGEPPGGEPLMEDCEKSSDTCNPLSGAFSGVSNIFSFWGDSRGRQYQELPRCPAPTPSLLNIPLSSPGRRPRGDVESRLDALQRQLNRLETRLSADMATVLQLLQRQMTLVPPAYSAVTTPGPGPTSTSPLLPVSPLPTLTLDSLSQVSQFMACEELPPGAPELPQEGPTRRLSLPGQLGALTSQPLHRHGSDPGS
row,SMILES,"hERG current change (%, negative = inhibition) at 10uM"
1,COc1ccc(C(NC(=O)c2ccc(=O)[nH]c2)C(=O)Nc2ccc(C(C)C)cc2)cc1 (centres unmarked),-2.31%
2,COC(=O)C(Cc1ccccc1)NC(=O)C12CC3CC(CC(C3)C1)C2 (centres unmarked),-4.07%
3,Cc1ccc(S(=O)(=O)N2CCCOC2CNC(=O)C(=O)NCc2ccncc2)cc1 (centres unmarked),1.48%
4,COc1cc(NC(=O)c2c(F)c(F)c(F)c(F)c2F)c(OC)cc1Cl,-0.179%
5,CCOC(=O)c1cc2ccc3ccccc3c2oc1=O,-2.36%
6,COCCCn1c(Cc2csc(Nc3cccc(Cl)c3)n2)nnc1SCC(=O)OC,-47.1%
7,Cc1cc(C)cc(OCC(=O)N(Cc2cccs2)C2CCS(=O)(=O)C2)c1 (centres unmarked),-39.7%
8,COCCNC(=O)C(=O)Nc1cccc(Br)c1,8.78%
9,COc1ccc(NC(=O)CSc2nc3[nH]ncc3c(=O)n2-c2ccccc2OC)cc1OC,5.34%
10,O=C(CCCc1c[nH]c2ccccc12)Nc1ncccc1O,14.7%
11,CC1CCCN(S(=O)(=O)c2ccc(CN3C(=O)c4cccnc4C3=O)cc2)C1 (centres unmarked),-58%
12,Cc1ccc2[nH]c(C)c(CCNCc3ccco3)c2c1.Cl,7.23%
13,COC(=O)c1cn(Cc2cc(OC)ccc2OC)cc(F)c1=O,12.2%
14,O=C(c1ccc(S(=O)(=O)N2CCCC2)cc1)N1CCC(CN2C(=O)c3cccc4cccc(c34)C2=O)CC1,10.5%
15,CCOc1ccc(/C=C2/SC(=O)NC2=S)cc1,17%
16,COC(=O)c1ccc(N2C(=O)CC(N3CCN(c4ccccc4)CC3)C2=O)cc1 (centres unmarked),11.1%
17,COCCCNCCCCOc1ccc(Br)cc1C.O=C(O)C(=O)O,-64.6%
18,CCN(C(=O)CSc1nc2ccccc2n1CCc1ccccc1)C1CCS(=O)(=O)C1 (centres unmarked),-21.8%
19,O=C(Nc1ccc(S(=O)(=O)N2CCCC2)cc1)c1ccc2c(=O)n3c(nc2c1)CCCCC3,9.23%
20,Fc1ccc(COc2cccc3cccnc23)cc1,-8.3%
21,O=c1sc2ccccc2n1CCCOc1ccccc1,-3.76%
22,Cc1ccc2[nH]c(O)c(N=NC(=O)c3ccc(NS(=O)(=O)c4cccs4)cc3)c2c1,2.7%

row,SMILES,"hERG current change (%, negative = inhibition) at 10uM"
1,O=C(Cn1cnc2c(nnn2Cc2ccc(F)cc2)c1=O)NC1CCCC1,10.6%
2,Cc1ccc(CN(c2ccc(C(=O)N3CCCC3)cc2)S(C)(=O)=O)cc1,9.91%
3,O=C(/C=C/c1ccc([N+](=O)[O-])cc1)/C=C/c1ccco1,-5.91%
4,Cc1ccccc1NC1=C(C(=O)c2ccccc2)N(C)S(=O)(=O)c2ccccc21,3.33%
5,Cc1ccccc1-c1noc(CNC(=O)COc2ccccc2)n1,-10.4%
6,O=c1[nH]n(-c2ccc([N+](=O)[O-])cc2)c(=O)c2ccccc12,5.47%
7,NC(=O)c1cc([N+](=O)[O-])ccc1NCc1ccc(N)cc1,10.5%
8,NS(=O)(=O)c1cccc(NC(=O)c2cccc(Oc3ccccc3)c2)c1,0.243%
9,CCOC(=O)c1c(NC(=O)COC(=O)CCCOc2ccc(OC)cc2)sc(C(=O)NC)c1C,-7.04%
10,CCN1CCN(c2ccc(S(=O)(=O)N3CCCCC3)cc2NC(=O)Cc2ccc(OC)cc2)CC1,-60.1%
11,Cc1ccc(-c2nnc(SCC(=O)Nc3ccc4c(c3)OCCO4)n2N)cc1,-2.8%
12,O=C(OCC(=O)N1CCOCC1)c1ccccc1Cc1ccccc1,-35.2%
13,CCCNC(=O)c1c(O)c2cccc3c2n(c1=O)CCC3,14.1%
14,Cc1ccc(OC(=O)c2ccccc2C(=O)OCC(F)(F)C(F)F)cc1,16.9%
15,COc1ccc(-c2cnn3c4c(c(C)nc23)CCN4C(C)C)cc1OC,12.7%
16,Cc1ccc(NC(=O)C/C(N)=N/OC(=O)Nc2cccc(Cl)c2)cc1,7.87%
17,CC(C)Cc1ccc(C(C)C(=O)Nc2cccnc2)cc1 (centres unmarked),12%
18,CCCCc1nnc2c(N(C)S(=O)(=O)c3ccccc3)nc3ccccc3n12,-13.5%
19,O=c1c2[nH]c3ccccc3c2ncn1Cc1ccccn1,-0.569%
20,O=C(c1ccccc1NS(=O)(=O)c1ccc(F)cc1)N1CCOCC1,16.9%
21,Cc1nn(-c2cc(N3CCCCCC3)ccc2[N+](=O)[O-])c(=O)c2ccccc12,6.02%
22,CCC(C(=O)Nc1cc(Cl)ccc1OC)c1ccccc1 (centres unmarked),7.11%

row,SMILES,"hERG current change (%, negative = inhibition) at 10uM"
1,CC(C)n1nc(C(=O)Nc2ccc3c(c2)OCO3)c2ccccc2c1=O,11%
2,COc1ccc2[nH]c3c(c2c1)CCNC3=O,7.33%
3,CC(C)NC(=O)c1ccc(COc2cc(Cl)ccc2Cl)o1,6.03%
4,CN(CCCNC(=O)CSc1cc(=O)n(C)c2cc(Cl)ccc12)Cc1ccccc1,-63.5%
5,Cc1cccn2c(=O)c(/C=C(\C#N)C(=O)NCc3ccco3)c(N3CCOCC3)nc12,-50.9%
6,CCN(CCN1CCCC1)C(=O)C1CCC(=O)N(CCCN2CCOCC2)C1 (centres unmarked),12.8%
7,CCc1cccc(C)c1NC(=O)COC(=O)c1ccc2c(c1)S(=O)(=O)c1ccccc1C2=O,-0.0165%
8,CN(c1ncc(C(F)(F)F)cc1Cl)N1C(=O)C2ONC3(C(=O)CC(C)(C)CC3=O)C2C1=O (centres unmarked),11%
9,CC(C)Cc1ccc(/C=C/C(=O)N2CCCCC2)cc1,-32.1%
10,CN(C(=S)Nc1ccc(SC(F)F)cc1)c1ccc(O)cc1,-21.3%
11,CCOC(=O)N1CCN(c2ncc(C(F)(F)F)cc2Cl)CC1,21.4%
12,CC(C)OC(=O)CC1C(=O)NCCN1C(=S)NC(=O)c1ccccc1 (centres unmarked),-3.57%
13,CC(=O)NC(Cc1ccc(F)c(F)c1)C(=O)NC1CCN(c2c(Cc3ccccc3)c(C)nc3ncnn23)CC1 (centres unmarked),-58.7%
14,O=S(=O)(c1ccccc1)N1CCC(n2cnc3ccccc32)CC1,-64%
15,COc1ccc2c(c1)CCc1c(C(=O)N(C)c3ccccc3)noc1-2,1.39%
16,Cc1c(C(=O)NNC(=O)c2ccncc2)oc2ccccc12,-5.92%
17,COc1ccc(CCC(=O)NCC2CCCCC2)cc1OC,13.4%
18,Cc1ccc(C)c(NC(=O)C2CC(O)CN2C(=O)OCc2ccccc2)c1 (centres unmarked),3.96%
19,FC(F)(F)c1cccc(Cc2noc(CN3CCCC(CN4CCCC4)C3)n2)c1 (centres unmarked),-45.5%
20,COc1ncccc1C(=O)N1CCCC(C(=O)c2cccc(OC(C)C)c2)C1 (centres unmarked),1.87%
21,COc1cc(C(=O)NC(=S)Nc2ccccc2[N+](=O)[O-])cc(OC)c1OC,12.7%
22,Cc1ccc(C(=O)OCC(=O)NNC(=O)c2cccs2)c(O)c1,-3.54%

row,SMILES,"hERG current change (%, negative = inhibition) at 10uM"
1,Cc1cc(C)n(C(=O)c2cc(F)c(F)cc2C)n1,4.1%
2,CN(CCOc1ccccc1)C(=O)C1CCN(C(=O)c2ccc(Cl)cc2)CC1,-47.9%
3,CCN1CCN(CCCNC(=O)c2ccc(/C=C3/Oc4ccccc4N(Cc4cccc(C)c4)C3=O)cc2)CC1,-19.1%
4,O=C(Nc1nc2ccccc2n1CCN1CCOCC1)c1ccccc1,-6.69%
5,Cc1ccc(NC(=O)C2CCCN2S(=O)(=O)c2ccc3c(c2)n(C)c(=O)c(=O)n3C)cc1 (centres unmarked),-11.4%
6,C/C(=N/N=C1\SCC(=O)N1c1ccccc1)c1ccc(C)cc1,14.3%
7,CCOC(=O)N1CCN(C2CCCN(C(=O)c3ccccc3N(C)C)C2)CC1 (centres unmarked),10.1%
8,Nc1nc(COC(=O)C2CC(=O)N(Cc3ccccc3)C2)nc(Nc2ccccc2)n1 (centres unmarked),-51.9%
9,O=C(NC1CCSC1=O)c1cccc(C(=O)NC2CCSC2=O)c1 (centres unmarked),5.68%
10,CCCCC(=O)N/N=C/c1c(O)n(CC)c(=S)[nH]c1=O,2.34%
11,COc1ccc(-c2nsc3c(N4CCCCC4)ncnc23)cc1,-18.1%
12,CCSc1nnc(NC(=O)c2cccc(OCc3c(C)noc3C)c2)s1,-4.73%
13,O=C(COc1ccccc1C(=O)O)NC1CCCc2ccccc21 (centres unmarked),6.21%
14,O=C(OCC(=O)N1CCN(c2ccccc2)CC1)c1cccs1,5.21%
15,Cc1ccc(-c2csc(NC(=O)C3CC(=O)N(Cc4ccco4)C3)n2)cc1 (centres unmarked),-25.5%
16,Cc1nn(Cc2ccccc2)c(C)c1C(=O)Nc1ccc(N2CCOCC2)cc1,3.71%
17,O=C(O)c1ccc(-c2ccc(/C=N/Nc3ccc([N+](=O)[O-])cc3)o2)cc1,22.1%
18,Cc1ccc(/C=C/C(=O)OCC(=O)Nc2cccc(S(=O)(=O)N(C)C)c2)o1,-14.6%
19,Cc1cc(C)cc(NC(=O)CSc2ccc(-c3ccco3)nn2)c1,-28.8%
20,CC(C)c1ccc(NC(=O)[C@H](NC(=O)[C@@H]2Cc3ccccc3CN2)c2ccccc2)cc1,-6.39%
